Consider 172 sequences from paper PMC5836133.

The list shows a part of the results. At the low end of the ranking the order means little.

The assay deals with T1, GST-NbGlk1(82-244).
T1 sequence: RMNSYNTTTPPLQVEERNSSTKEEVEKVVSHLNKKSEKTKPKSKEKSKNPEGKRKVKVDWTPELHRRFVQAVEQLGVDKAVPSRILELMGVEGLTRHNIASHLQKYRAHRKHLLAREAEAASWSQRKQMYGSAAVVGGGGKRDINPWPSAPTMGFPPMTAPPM
Put plainly: protein-binding microarray.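 Further: rank-based score ranging −0.5 to +0.5 with E above 0.45 taken as significant binding.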 The following applies: NbGlk1 is a Golden2-like transcription factor of Nicotiana benthamiana; high values mean tight binding; most listed sequences are background and not binding sites; double strand, one strand shown.
In the case of ACACACTG, the binding signal is -0.174 E-score.

In the case of ACGTTCCA, the binding signal is -0.0429 E-score.

In the case of AGAACTCA, the binding signal was -0.0434 E-score.

In turn, CAGATCGA displayed a binding signal of 0.0635 E-score.

AGTATAGA returned a binding signal of 0.16 E-score.

Take AATGATAA: the binding signal is 0.0774 E-score.

As for AGACTACT, the binding signal was -0.000398 E-score.

On to ATAGGTCC, for which the binding signal was -0.174 E-score.

Sequence CAAAAAGC gave a binding signal of -0.126 E-score.

Sequence ACTAGTCG displayed a binding signal of -0.15 E-score.

As to AAGGCCAC, the binding signal was -0.202 E-score.

As to AATAAAAC, the binding signal came to 0.013 E-score.

Turning to ATACGTTC, the binding signal stood at 0.0917 E-score.

Regarding AATTAGTG, the binding signal turned out to be 0.133 E-score.

Take AGGACGAC: the binding signal was -0.193 E-score.

The sequence ACTACCTC came in with a binding signal of -0.205 E-score.

Consider ACACAGCC, for which the binding signal is -0.163 E-score.

As to ATAGCCGA, the binding signal was determined as 0.0886 E-score.

Sequence AGCCTGGA came in with a binding signal of -0.159 E-score.

In turn, AAGGGGCC yielded a binding signal of -0.386 E-score.

In turn, AGGAGGAA displayed a binding signal of -0.0358 E-score.

In the case of AACCATCT, the binding signal is -0.0747 E-score.

As for AGACCACC, the binding signal is -0.371 E-score.

The sequence ACCCCAGT came in with a binding signal of -0.146 E-score.

In turn, CACTCGCA displayed a binding signal of 0.00857 E-score.

In the case of ATAACTCC, the binding signal is -0.0541 E-score.

Consider ATTGCTTA, for which the binding signal was found to be 0.199 E-score.

On to AGGGACAT, for which the binding signal was -0.144 E-score.

As for AGGTCGCC, the binding signal was -0.217 E-score.

As for AGTTTGTA, the binding signal amounted to 0.0146 E-score.

AGGATTAT gave a binding signal of 0.31 E-score.

On to AGGTGTTA, for which the binding signal was determined as 0.0108 E-score.

As for ACTTGAAG, the binding signal is -0.0448 E-score.

ACTTGTCA had a binding signal of -0.136 E-score.

AATGCGAA had a binding signal of 0.0515 E-score.

As for AGGCCATC, the binding signal is -0.192 E-score.

Regarding AACGACTG, the binding signal is -0.116 E-score.

Regarding CACTTAGC, the binding signal was -0.204 E-score.

Regarding AACCCCTC, the binding signal was -0.099 E-score.

The sequence ATTTCTTA gave a binding signal of 0.314 E-score.

ACATGCTC registered a binding signal of -0.226 E-score.

Sequence AAATTCTT showed a binding signal of 0.191 E-score.

Regarding AATCGATT, the binding signal was 0.353 E-score.

Turning to CAACCGAA, the binding signal was -0.0389 E-score.

AAGTCACA had a binding signal of -0.131 E-score.

Take AGGACTAT: the binding signal is -0.109 E-score.

Consider AGGAGTAG, for which the binding signal was -0.174 E-score.

ACGGTCGA: the binding signal is -0.131 E-score.

Sequence AAGGTTAG displayed a binding signal of -0.14 E-score.

With AATCAAGT, the binding signal stood at 0.233 E-score.

Consider AGTCGACC, for which the binding signal is -0.233 E-score.

Regarding AAAGACTA, the binding signal was -0.0211 E-score.

In turn, ATTAAGCC showed a binding signal of -0.152 E-score.

For AGGTACAC, the binding signal was -0.145 E-score.

The sequence AGTATTCC came in with a binding signal of 0.00935 E-score.

On to ATGCCAAA, for which the binding signal is -0.0864 E-score.

In turn, CAAGATTA yielded a binding signal of 0.314 E-score.

Sequence AGGTTAGC registered a binding signal of -0.31 E-score.

As for AACCGTGT, the binding signal is -0.088 E-score.

Consider CAAGACCC, for which the binding signal is -0.279 E-score.

On to ACGGGGAG, for which the binding signal is -0.163 E-score.

AGATCCTA came in with a binding signal of 0.314 E-score.

On to ATGCATGG, for which the binding signal was -0.115 E-score.

The sequence AAACGACT registered a binding signal of 0.0491 E-score.

CACAGATC showed a binding signal of 0.214 E-score.

AGTATGCG had a binding signal of -0.0409 E-score.

The sequence AGTACACG showed a binding signal of -0.16 E-score.

With AAACGGAA, the binding signal was found to be 0.0282 E-score.

As for ACATAAAC, the binding signal is -0.0325 E-score.

Sequence AGAGGGTG gave a binding signal of -0.222 E-score.

With ACCGGCTC, the binding signal was -0.312 E-score.

With AATGCTGA, the binding signal was 0.0577 E-score.

On to CACAACCC, for which the binding signal was -0.0837 E-score.

Sequence AAATTCCT displayed a binding signal of 0.176 E-score.

AGGGCGCG registered a binding signal of -0.0419 E-score.

Take ACGTGTAT: the binding signal was -0.0169 E-score.

ATAGCCAT returned a binding signal of -0.0482 E-score.

For ACAGTCAA, the binding signal was found to be 0.0572 E-score.

As to AACGAGTA, the binding signal is -0.0344 E-score.

The sequence AGTTTGCC had a binding signal of -0.0988 E-score.

Take AGAACCTG: the binding signal was -0.173 E-score.

The sequence AGCACCGA had a binding signal of -0.137 E-score.

CAAGCTAA: the binding signal is -0.145 E-score.

ACGGTTAG had a binding signal of -0.184 E-score.

AACCCGAA returned a binding signal of 0.0302 E-score.

Turning to ACTAGCCG, the binding signal was -0.128 E-score.

As for AACAGAGA, the binding signal is -0.0323 E-score.

With AGACCGAT, the binding signal is -0.0375 E-score.

Turning to AGCCGGCC, the binding signal was -0.394 E-score.

CACGACGC: the binding signal is -0.189 E-score.

Consider ACTGCGCT, for which the binding signal is -0.0116 E-score.

In the case of AACTAGGG, the binding signal is -0.165 E-score.

Take AAATGTCA: the binding signal is 0.113 E-score.

CAGAGAGA yielded a binding signal of -0.0859 E-score.

In turn, AACACATC displayed a binding signal of -0.0668 E-score.

Sequence ATAGTGAC gave a binding signal of -0.0982 E-score.

ACTCTTAG displayed a binding signal of -0.135 E-score.

As for AACTGATC, the binding signal amounted to 0.0627 E-score.

With AATTGGCT, the binding signal was -0.0911 E-score.

With CACCGCCA, the binding signal is -0.106 E-score.

With ACTATGAG, the binding signal was -0.151 E-score.

Sequence AGGCACCG gave a binding signal of -0.303 E-score.

ACGCAAGA: the binding signal was 0.00406 E-score.

AAACGGGA gave a binding signal of -0.0376 E-score.

The sequence CAGCGAAC displayed a binding signal of -0.132 E-score.

As to AAGGTGGT, the binding signal was -0.204 E-score.

For AGGGAGCA, the binding signal is -0.223 E-score.

Regarding AACGCTGG, the binding signal is -0.14 E-score.

Consider AGAGGGCA, for which the binding signal is -0.211 E-score.

Sequence AACGCCGA yielded a binding signal of -0.13 E-score.

On to AAATCTGA, for which the binding signal was found to be 0.469 E-score.

For AAAAAACT, the binding signal was 0.0615 E-score.

Regarding AGCTTGAG, the binding signal is -0.18 E-score.

As for ACAAGCAC, the binding signal was -0.11 E-score.

For CAGAATCG, the binding signal was found to be 0.33 E-score.

AGGCACTA yielded a binding signal of -0.177 E-score.

Sequence AGCGGAGC registered a binding signal of -0.124 E-score.

In turn, AGTTGGCG displayed a binding signal of -0.182 E-score.

Sequence CAAGTCGA displayed a binding signal of -0.155 E-score.

Turning to ATATCGAT, the binding signal stood at 0.347 E-score.

AAGACTCC gave a binding signal of -0.137 E-score.

The sequence AAGCTCAG yielded a binding signal of -0.131 E-score.

In turn, AGTTGGGG yielded a binding signal of -0.122 E-score.

As to ACACTGTG, the binding signal is -0.091 E-score.

Sequence ACCACCGT gave a binding signal of -0.191 E-score.

In the case of ATCATGGG, the binding signal is -0.0545 E-score.

For AAAGAGAT, the binding signal amounted to 0.27 E-score.

AATGCGAG had a binding signal of 0.00187 E-score.

In the case of ACTCGCGA, the binding signal worked out at 0.169 E-score.

For AGGTATTA, the binding signal is -0.00782 E-score.

The sequence AAATTTTA came in with a binding signal of 0.24 E-score.

Consider AGCAAGAT, for which the binding signal turned out to be 0.309 E-score.

The sequence AAGCAGCG gave a binding signal of -0.159 E-score.

Sequence AATTCGCC had a binding signal of 0.138 E-score.

ATCCGACA: the binding signal came to 0.198 E-score.

Sequence AGCGGAAA yielded a binding signal of 0.0742 E-score.

AATGCGGC showed a binding signal of -0.137 E-score.

AAGCCGAA came in with a binding signal of -0.0105 E-score.

In turn, ATCTCGTG came in with a binding signal of 0.357 E-score.

ATCCAGCC came in with a binding signal of 0.215 E-score.

In turn, AACCCCCT yielded a binding signal of -0.371 E-score.

AGAGTATC gave a binding signal of 0.319 E-score.

As to ATCCTAGG, the binding signal amounted to 0.0855 E-score.

AATGGAAT: the binding signal stood at 0.152 E-score.

Consider ACCCGCAG, for which the binding signal is -0.129 E-score.

Take AGCATCAC: the binding signal came out at 0.0464 E-score.

The sequence AGTGTGGA yielded a binding signal of 0.0588 E-score.

The sequence ACGAAAGC came in with a binding signal of -0.235 E-score.

Regarding AGCCGTAG, the binding signal was -0.195 E-score.

AGCGATAG displayed a binding signal of -0.0969 E-score.

Sequence AGTGCCAA returned a binding signal of -0.2 E-score.

With ATGGCCGC, the binding signal was -0.216 E-score.

In turn, AAATTGAT returned a binding signal of 0.178 E-score.

On to AAACCCAA, for which the binding signal is -0.0425 E-score.

Turning to AGAATAGA, the binding signal is 0.0813 E-score.

For the sequence ATTGGCAA, the binding signal was determined as 0.0262 E-score.

Consider ACTAGAGT, for which the binding signal is -0.0548 E-score.

ACACTACG gave a binding signal of -0.0876 E-score.

Sequence AGCCCTAA yielded a binding signal of -0.222 E-score.

In turn, ACCCCTAA displayed a binding signal of -0.0998 E-score.

For ATTACGCA, the binding signal turned out to be 0.355 E-score.

AAGTGATC: the binding signal worked out at 0.0531 E-score.

With ACGTTATA, the binding signal came out at 0.154 E-score.

For the sequence ATAACAGA, the binding signal came out at 0.201 E-score.

Sequence ACTCAAGA gave a binding signal of 0.0654 E-score.

In turn, AGTTAGGG yielded a binding signal of -0.17 E-score.

In turn, AAAAATAT returned a binding signal of 0.3 E-score.

Sequence ATGTCCGA had a binding signal of -0.0812 E-score.

With ACGAGGCA, the binding signal is -0.124 E-score.

Sequence ATCTAGTC displayed a binding signal of 0.251 E-score.

Regarding AATCGCTC, the binding signal turned out to be 0.133 E-score.

Sequence AATGCCGT gave a binding signal of -0.0641 E-score.
